PMC4068158
Results are given in words; binding and its absence hold for the method and conditions named. In cells and extracts the contact can be indirect. Some results given as binding are weak or reduced against the parent protein; the word gives no strength. For some assays here: Sequences can lack the tags named with a protein.

Amino acid sequences for entries named in this document (tags omitted). A change or cut given only in a name is not applied to a line headed by its entry. Chains listed by the source or under a name are the forms on record and can include a tag or linker. Residues count along the entry.
UniProt Q9UNN5: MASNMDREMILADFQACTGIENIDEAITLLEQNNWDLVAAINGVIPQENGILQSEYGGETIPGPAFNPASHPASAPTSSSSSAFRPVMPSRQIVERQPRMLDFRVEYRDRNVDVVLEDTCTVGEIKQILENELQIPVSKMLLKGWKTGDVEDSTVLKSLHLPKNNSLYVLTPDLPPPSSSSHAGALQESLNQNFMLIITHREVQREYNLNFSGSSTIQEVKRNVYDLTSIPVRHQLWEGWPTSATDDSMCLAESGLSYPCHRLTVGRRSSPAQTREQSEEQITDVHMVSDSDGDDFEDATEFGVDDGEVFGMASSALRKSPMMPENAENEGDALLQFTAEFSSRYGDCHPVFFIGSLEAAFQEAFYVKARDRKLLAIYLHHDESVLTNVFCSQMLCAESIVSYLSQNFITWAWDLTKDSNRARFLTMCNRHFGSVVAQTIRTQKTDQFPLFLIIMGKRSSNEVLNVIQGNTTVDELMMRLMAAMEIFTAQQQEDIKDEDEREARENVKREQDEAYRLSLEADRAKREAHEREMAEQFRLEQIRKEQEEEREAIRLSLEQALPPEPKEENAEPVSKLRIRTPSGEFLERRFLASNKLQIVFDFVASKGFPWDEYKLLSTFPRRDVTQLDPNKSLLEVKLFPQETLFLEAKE
Flag-FAF1 wild type: residues 2-650 of Q9UNN5
Flag-FAF1 P620G (Q9UNN5, form named): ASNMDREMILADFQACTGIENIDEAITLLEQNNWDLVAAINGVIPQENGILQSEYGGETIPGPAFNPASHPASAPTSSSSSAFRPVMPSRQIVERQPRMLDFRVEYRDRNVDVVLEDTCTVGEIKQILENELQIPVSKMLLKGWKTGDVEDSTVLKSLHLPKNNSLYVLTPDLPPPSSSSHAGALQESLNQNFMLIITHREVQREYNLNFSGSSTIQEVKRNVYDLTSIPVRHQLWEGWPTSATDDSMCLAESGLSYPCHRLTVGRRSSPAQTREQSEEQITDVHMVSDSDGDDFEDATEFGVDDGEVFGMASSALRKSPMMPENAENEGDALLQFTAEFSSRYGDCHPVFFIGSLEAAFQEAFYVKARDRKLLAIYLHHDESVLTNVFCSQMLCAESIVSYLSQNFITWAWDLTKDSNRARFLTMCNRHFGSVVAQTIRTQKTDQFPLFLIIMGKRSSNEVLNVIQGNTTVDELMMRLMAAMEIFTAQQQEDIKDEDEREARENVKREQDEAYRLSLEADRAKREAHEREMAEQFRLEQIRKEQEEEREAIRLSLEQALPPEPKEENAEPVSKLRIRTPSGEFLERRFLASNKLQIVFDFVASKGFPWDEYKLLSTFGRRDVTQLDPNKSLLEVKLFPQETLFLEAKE
Flag-FAF1 F296A (Q9UNN5, form named): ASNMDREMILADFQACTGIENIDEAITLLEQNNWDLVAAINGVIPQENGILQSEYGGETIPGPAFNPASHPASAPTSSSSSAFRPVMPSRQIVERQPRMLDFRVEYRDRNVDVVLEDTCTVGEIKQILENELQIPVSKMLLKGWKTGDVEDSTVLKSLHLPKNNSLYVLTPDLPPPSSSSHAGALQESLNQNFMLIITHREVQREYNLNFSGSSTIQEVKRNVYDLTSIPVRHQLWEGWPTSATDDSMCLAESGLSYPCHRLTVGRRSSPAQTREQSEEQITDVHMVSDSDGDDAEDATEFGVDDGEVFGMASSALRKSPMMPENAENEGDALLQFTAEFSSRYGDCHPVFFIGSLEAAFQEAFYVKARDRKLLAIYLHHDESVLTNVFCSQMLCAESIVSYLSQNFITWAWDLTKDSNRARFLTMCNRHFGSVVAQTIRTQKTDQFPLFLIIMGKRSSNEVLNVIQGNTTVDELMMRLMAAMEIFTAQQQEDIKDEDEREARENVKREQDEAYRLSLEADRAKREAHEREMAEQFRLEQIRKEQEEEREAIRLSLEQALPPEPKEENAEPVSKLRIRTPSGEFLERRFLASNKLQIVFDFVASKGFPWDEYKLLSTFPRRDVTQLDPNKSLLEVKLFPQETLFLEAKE
Flag-FAF1 with deletion of residues 293 to 301 (Q9UNN5, form named): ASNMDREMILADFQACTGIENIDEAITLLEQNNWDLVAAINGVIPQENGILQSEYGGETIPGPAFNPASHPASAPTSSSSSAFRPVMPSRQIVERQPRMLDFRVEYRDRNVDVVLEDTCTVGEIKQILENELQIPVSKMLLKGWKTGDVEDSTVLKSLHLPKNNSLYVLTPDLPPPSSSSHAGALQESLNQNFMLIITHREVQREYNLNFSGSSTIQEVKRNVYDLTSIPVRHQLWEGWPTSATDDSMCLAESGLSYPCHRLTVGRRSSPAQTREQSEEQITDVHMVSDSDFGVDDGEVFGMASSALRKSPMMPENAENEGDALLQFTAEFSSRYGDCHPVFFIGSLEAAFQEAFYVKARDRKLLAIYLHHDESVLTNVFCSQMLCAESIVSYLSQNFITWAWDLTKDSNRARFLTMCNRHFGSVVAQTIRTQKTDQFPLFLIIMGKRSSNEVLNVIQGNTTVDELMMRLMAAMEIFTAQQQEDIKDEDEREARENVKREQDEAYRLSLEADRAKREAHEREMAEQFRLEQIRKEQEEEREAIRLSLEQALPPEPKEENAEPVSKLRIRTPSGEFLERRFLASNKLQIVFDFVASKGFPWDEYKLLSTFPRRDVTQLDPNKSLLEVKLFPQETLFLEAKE
Flag-FAF1 D295A/F296A/E297A (Q9UNN5, form named): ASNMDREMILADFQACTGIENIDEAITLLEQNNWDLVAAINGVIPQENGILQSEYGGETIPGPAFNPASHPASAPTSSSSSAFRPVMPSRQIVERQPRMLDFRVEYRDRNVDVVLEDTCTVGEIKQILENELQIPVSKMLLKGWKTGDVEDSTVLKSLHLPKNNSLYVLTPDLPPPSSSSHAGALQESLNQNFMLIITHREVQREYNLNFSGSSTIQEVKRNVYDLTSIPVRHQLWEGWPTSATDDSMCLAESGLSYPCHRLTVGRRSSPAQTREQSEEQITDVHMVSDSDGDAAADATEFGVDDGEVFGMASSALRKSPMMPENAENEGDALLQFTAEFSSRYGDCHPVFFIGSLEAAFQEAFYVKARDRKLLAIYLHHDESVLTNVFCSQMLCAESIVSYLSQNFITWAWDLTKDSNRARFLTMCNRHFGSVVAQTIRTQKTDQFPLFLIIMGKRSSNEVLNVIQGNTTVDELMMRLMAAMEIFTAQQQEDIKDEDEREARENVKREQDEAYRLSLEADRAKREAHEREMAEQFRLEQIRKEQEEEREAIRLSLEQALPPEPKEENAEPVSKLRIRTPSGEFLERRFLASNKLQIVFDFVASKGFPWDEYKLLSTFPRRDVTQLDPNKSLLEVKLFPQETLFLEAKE
UniProt O43681: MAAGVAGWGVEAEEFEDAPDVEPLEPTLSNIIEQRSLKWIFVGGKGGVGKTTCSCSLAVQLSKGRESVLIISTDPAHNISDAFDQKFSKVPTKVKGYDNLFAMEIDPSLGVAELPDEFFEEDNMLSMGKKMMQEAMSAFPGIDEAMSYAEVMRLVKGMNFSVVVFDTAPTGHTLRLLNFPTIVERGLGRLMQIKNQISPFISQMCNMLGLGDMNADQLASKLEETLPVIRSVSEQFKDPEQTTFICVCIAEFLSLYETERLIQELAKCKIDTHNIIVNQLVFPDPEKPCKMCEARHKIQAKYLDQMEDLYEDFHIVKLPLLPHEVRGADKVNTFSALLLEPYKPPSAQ
UniProt O95292: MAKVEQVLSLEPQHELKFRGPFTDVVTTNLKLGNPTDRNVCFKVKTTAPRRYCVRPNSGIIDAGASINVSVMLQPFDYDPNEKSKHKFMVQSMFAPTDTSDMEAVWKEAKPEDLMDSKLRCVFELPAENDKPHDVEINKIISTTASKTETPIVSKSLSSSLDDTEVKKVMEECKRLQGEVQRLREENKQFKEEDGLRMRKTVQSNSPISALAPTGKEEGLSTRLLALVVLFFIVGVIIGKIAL

Columns and labels:
[1] = molecular target: endogenous FAF1 (human cells) (human (endogenous in U2OS, HeLa, SH-SY5Y)) (UniProt Q9UNN5); test: co-IP; endogenous FAF1 immunoprecipitated from U2OS lysates with sheep anti-FAF1 antibody and Protein A-Sepharose, sheep IgG as control
[2] = molecular target: T1, Flag-RAB3GAP1 F585A/F586A (human) (UniProt Q15042); test: co-IP; anti-Flag M2 beads on lysates of U2OS cells expressing the Flag-tagged bait (transfected or tetracycline-induced); buffer A (50 mM HEPES/KOH pH 7.2, 5 mM Mg(OAc)2, 70 mM KOAc, 0.2% Triton X-100, 10% glycerol, 0.2 mM EDTA), 4°C, 2 hr; endogenous prey by immunoblot; cells untreated, treated with MG132 or with siRNA (FAF1, p97, ASNA1, luciferase) as indicated
T1 sequence: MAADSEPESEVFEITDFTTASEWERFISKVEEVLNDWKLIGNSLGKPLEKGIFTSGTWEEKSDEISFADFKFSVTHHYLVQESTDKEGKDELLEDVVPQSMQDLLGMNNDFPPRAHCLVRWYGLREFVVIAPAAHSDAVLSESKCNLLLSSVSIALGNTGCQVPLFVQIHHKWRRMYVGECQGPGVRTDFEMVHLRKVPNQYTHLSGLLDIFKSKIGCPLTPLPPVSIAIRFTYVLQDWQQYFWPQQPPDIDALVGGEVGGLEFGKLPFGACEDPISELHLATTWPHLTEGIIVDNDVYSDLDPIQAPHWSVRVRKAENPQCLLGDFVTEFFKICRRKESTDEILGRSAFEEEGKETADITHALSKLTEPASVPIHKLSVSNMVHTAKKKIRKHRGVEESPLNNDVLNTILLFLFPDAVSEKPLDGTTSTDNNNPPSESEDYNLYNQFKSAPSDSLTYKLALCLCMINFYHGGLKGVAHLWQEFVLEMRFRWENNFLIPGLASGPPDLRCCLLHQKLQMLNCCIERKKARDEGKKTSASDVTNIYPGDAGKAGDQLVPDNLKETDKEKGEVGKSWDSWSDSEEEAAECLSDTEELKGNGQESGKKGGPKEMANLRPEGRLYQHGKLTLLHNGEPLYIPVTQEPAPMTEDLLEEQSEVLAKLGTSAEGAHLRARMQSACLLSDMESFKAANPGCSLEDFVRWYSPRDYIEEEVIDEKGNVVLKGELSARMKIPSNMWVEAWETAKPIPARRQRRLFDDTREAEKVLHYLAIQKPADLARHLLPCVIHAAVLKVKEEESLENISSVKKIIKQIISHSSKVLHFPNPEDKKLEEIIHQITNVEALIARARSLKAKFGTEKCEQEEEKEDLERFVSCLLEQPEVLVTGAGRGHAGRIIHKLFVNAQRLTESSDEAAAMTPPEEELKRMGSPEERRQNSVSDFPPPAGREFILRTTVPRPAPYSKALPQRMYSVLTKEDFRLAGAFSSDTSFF

Flag-FAF1 P620G (human) = Flag-FAF1 P620G (human) (UniProt Q9UNN5); test: as above
Flag-ASNA1 F15A (human) = Flag-ASNA1 F15A (human) (UniProt O43681); test: as above
Flag-FAF1 F296A (human) = Flag-FAF1 F296A (human) (UniProt Q9UNN5); test: as above
[3] = molecular target: Flag-FAF1 with deletion of residues 293 to 301 (human) (UniProt Q9UNN5); test: as above
[4] = molecular target: Flag-FAF1 wild type (human) (UniProt Q9UNN5); test: as above
[5] = molecular target: Flag-FAF1 D295A/F296A/E297A (human) (UniProt Q9UNN5); test: as above

Substance: endogenous VAPB (human cells) (from UniProt O95292 1-243)
- binding [1]: binds
- binding [2]: no binding
- binding (Flag-FAF1 P620G (human)): binds
- binding (Flag-ASNA1 F15A (human)): no binding
- binding (Flag-FAF1 F296A (human)): no binding
- binding [3]: no binding
- binding [4]: binds
- binding [5]: no binding
